Measurements published in PMC4336329 (PLoS ONE, 2015).
Out of some 310,000 compounds screened, about 14,000 (4.5%) showed an effect of 50% or more. Effects have a minus sign here. Some of the results follow.

What follows are compounds tested against human ether-à-go-go-related gene (hERG) potassium channel (human, UniProt Q12809) (assay: primary screen, population patch clamp on CHO cells stably expressing hERG).
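Also: peak tail current of the secondary pulse compared with the same well before compound.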

human ether-à-go-go-related gene (hERG) potassium channel, sequence (Q12809 whole entry, looked up): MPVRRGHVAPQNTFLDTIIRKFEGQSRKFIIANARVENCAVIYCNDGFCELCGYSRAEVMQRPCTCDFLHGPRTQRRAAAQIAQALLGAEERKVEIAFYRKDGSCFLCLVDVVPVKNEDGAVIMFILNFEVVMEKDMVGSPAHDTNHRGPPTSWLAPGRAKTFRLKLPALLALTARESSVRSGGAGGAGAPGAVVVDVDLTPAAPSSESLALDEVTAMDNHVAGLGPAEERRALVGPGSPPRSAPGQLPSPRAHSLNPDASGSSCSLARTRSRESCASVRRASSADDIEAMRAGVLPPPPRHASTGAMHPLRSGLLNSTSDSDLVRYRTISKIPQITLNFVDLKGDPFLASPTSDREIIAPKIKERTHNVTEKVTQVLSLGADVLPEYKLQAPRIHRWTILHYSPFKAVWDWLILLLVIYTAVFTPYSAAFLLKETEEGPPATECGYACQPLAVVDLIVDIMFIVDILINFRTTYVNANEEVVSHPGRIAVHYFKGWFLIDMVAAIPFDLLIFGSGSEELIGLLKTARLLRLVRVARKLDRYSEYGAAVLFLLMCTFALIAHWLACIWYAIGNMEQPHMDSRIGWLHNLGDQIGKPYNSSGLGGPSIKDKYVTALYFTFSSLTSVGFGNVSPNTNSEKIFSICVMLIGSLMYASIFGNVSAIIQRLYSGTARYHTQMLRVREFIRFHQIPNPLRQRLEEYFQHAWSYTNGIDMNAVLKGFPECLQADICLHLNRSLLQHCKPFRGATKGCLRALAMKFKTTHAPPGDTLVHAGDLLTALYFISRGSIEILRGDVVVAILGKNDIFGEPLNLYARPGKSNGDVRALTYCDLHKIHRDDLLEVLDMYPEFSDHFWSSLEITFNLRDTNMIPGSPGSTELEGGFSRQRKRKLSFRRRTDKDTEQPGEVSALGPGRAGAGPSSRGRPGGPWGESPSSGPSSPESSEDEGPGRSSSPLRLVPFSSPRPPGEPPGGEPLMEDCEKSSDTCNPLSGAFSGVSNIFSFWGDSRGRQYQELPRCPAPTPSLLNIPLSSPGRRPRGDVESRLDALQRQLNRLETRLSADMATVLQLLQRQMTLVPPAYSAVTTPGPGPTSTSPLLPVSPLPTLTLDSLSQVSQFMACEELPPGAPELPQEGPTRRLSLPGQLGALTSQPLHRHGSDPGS

Row | SMILES | hERG current change (%, negative = inhibition) at 10uM [%]
1 | C=CCON/C(CCC)=C1\C(=O)CC(C)(C)CC1=NC | 23.8
2 | O=C(N/C(=C\c1cccnc1)C(=O)N1CCOCC1)c1ccco1 | 1.86
3 | COc1cccc(NC(=O)c2cc(-c3cccnc3)nc3c(Cl)cccc23)c1 | 4.76
4 | CN(C)C(CNC(=O)c1ccc(NC(=O)c2cccs2)cc1)c1ccccc1 (centres unmarked) | 8.18
5 | Cl.Fc1ccc(Nc2nc(N3CCOCC3)nc(N3CCOCC3)n2)cc1 | 4.26
6 | O=C(CSc1nc2ccccc2o1)N/N=C/c1ccccc1C(=O)O | 22.1
7 | Cc1ccc(C)c(C(=O)CC2(O)C(=O)Nc3ccccc32)c1 (centres unmarked) | 1.57
8 | Cc1ccc(S(=O)(=O)N(C)C)cc1NC(=O)COC(=O)C1(c2ccccc2)CC1 | -24.7
9 | O=[N+]([O-])c1cccc(S(=O)(=O)N2CCN(S(=O)(=O)N3CCCCCC3)CC2)c1 | 20.3
10 | O=C(Nc1nc(-c2ccccc2)cs1)C1CCCN(S(=O)(=O)c2ccccc2)C1 (centres unmarked) | -10.4
11 | O=C(Nc1ccc(N2CCN(Cc3ccccc3Cl)CC2)cc1)c1cccnc1 | 5.42
12 | CCOc1cc(C(=O)NCc2ccccc2)ccc1OCC(=O)N1CCCCC1 | -20.3
13 | CCOC(=O)C1=C(COC(=O)CNC(=O)c2ccc(C(C)(C)C)cc2)NC(=O)NC1C (centres unmarked) | -10.4
14 | COc1ccc(C2C(C(C)=O)=C(C)N=c3s/c(=C\c4ccc5c(c4)OCO5)c(=O)n32)c(OC)c1 (centres unmarked) | 17.2
15 | CCN(CC)CCCCCOc1ccccc1OC | 7.04
16 | COc1ccc(CCNC(=O)c2noc(C(C)C)c2[N+](=O)[O-])cc1OC | 12.2
17 | CC(C)(C)c1ccc(-n2ncc3c2CCCC3NC(=O)CCN2CCCO2)cc1 (centres unmarked) | -7.02
18 | O=C(Nc1ccc(F)cc1)C1CCCN(S(=O)(=O)c2ccc3[nH]c(=O)ccc3c2)C1 (centres unmarked) | -11.1
19 | Cc1ccc(CCNS(=O)(=O)c2ccc(C)cc2)cc1 | 5.05
20 | Cc1cccc(-n2c(=O)cc(N3CCN(c4ccc(F)cc4)CC3)[nH]c2=O)c1 | -17.5
21 | OC(c1ccccc1)(c1ccccc1)c1ccncc1 | 18.8
22 | O=C(O)CCCCCn1c(SCc2cc(=O)n3ccccc3n2)nc2ccsc2c1=O | -9.44
23 | O=C(NCCS(=O)(=O)NCc1ccccc1)c1ccccc1 | 4.82

Row | SMILES | hERG current change (%, negative = inhibition) at 10uM [%]
24 | O=C(Cn1c(=S)[nH]c2ccccc2c1=O)NCCc1ccccc1 | 16
25 | CC(=O)c1sc(=S)n(-c2ccccc2)c1C | 9.77
26 | CC1=C(C(=O)OCC2CCCO2)C(c2ccc(Cl)cc2)NC(=O)N1 (centres unmarked) | -8.58
27 | Cc1csc(=O)n1CCC(=O)OCC(=O)Nc1ccc(F)c(F)c1F | -0.344
28 | CN(Cc1ccccc1)C(=O)Nc1ccc(Cl)cc1 | 0.136
29 | COC(=O)c1ccc(NC(=O)CNC(=O)C2CCCCC2)c(C)c1 | 1.8
30 | CCCN1CCN(C2CCCCC2NS(=O)(=O)c2ccc(Cl)cc2)CC1 (centres unmarked) | -63.4
31 | Cc1cc(C)c(OCCCCN2CCC(C)CC2)c(Br)c1 | -72.7
32 | Cc1ccc(C)n1-c1ccc(C(=O)/C=C/N(C)C)cc1 | -11.8
33 | Cc1ccc(Sc2c(C)nn(C(=O)C3CC3)c2C)cc1 | 11.6
34 | COc1ccc(CCC(=O)N2CCN(S(=O)(=O)c3cccc(Cl)c3)CC2)cc1 | -34.8
35 | OCC[C@H]1C[C@H](O)[C@@H](O)[C@]2(Cc3ccccc3CCO2)O1 | 1.22
36 | Cc1cc(NC(=O)CSc2sc3c(O)cc(=O)[nH]c3c2C#N)ccc1Br | 3.12
37 | CCC(=O)N1CCc2cc(S(=O)(=O)CCC(=O)Nc3ccc(OC)cc3)ccc21 | 12.5
38 | NS(=O)(=O)c1ccc(NC(=O)CSc2cn[nH]n2)cc1 | 5.06
39 | CCOC(=O)c1cnc2ccc(C(=O)OC)cc2c1Nc1cccc(C(=O)O)c1.Cl | 4.91
40 | O=C(OCCCOC(=O)c1ccccc1O)c1ccccc1O | -1.3
41 | O=c1[nH]c2cccnc2n1Cc1ccccc1 | 7.67
42 | Cc1cc(S(=O)(=O)Nc2ccc(C(=O)N3CCN(C(=O)c4ccco4)CC3)cc2)ccc1F | -64.4
43 | COC(=O)C(NC(C)=O)(Nc1ccccn1)C(F)(F)F (centres unmarked) | 14
44 | O=C(CCC(=O)c1ccc(Oc2ccccc2)cc1)Nc1cccc(Cl)c1Cl | 8.33
45 | O=C(N/N=C/c1ccc2nccnc2c1)c1ccncc1 | 6.4
46 | O=c1c(-c2ccc(Cl)cc2)cnc2n1CCS2 | 2.45

Row | SMILES | hERG current change (%, negative = inhibition) at 10uM [%]
47 | CCN(CC)c1ccc(NS(=O)(=O)c2ccc(-c3ccc(=O)[nH]n3)o2)c(C)c1 | 11
48 | CC1(C)S[C@@H]2[C@H](NC(=O)COc3ccccc3)C(=O)N2C1C(=O)OCc1ccccc1 (some centres unmarked) | -48.1
49 | COCCn1c(SCC(=O)N2CCCCC2)nc2c(c1=O)SCC2 | -4.63
50 | N#C/C(=C\c1cccc(O)c1)C(=O)Nc1ccc2c(c1)OCCO2 | 4.69
51 | Cc1c(C(=O)NN)[nH]c2ccc([N+](=O)[O-])cc12 | 23.5
52 | O=C1CCCc2c1nc(-c1cccc(Cl)c1)n2O | -5.95
53 | COc1ccccc1C(=O)Nc1ccnn1C1CCN(C(=O)c2ccoc2)CC1 | -47.4
54 | COc1ccc(Nc2nc(N3CCOCC3)nc(N3CCOCC3)n2)cc1Cl | -18.5
55 | C[C@@H]1NC(=O)c2cc([N+](=O)[O-])cc(I)c2NCCCC[C@@H](C(N)=O)NC(=O)[C@H](CC(N)=O)NC1=O | 15.9
56 | S=C(NCc1ccco1)N1CCN(c2nc(-c3ccccc3)cs2)CC1 | 23.7
57 | COc1ccc2[nH]c(=O)c(CN(Cc3nnnn3Cc3ccc(F)cc3)CC3CCCO3)cc2c1 (centres unmarked) | -48.6
58 | CCOc1ncccc1C(=O)OCC(=O)N(CC)c1ccccc1 | -6.17
59 | CCCCOC(=O)C1=C(C)NC(=O)NC1c1ccc(OC)cc1 (centres unmarked) | 16.4
60 | CC(=O)N(C)c1nnc(-c2cnccn2)s1 | 14
61 | COC(=O)C1=C(Nc2ccc(C)cc2)C=C(C)C(C(=O)OC)C1c1ccc(OC)cc1 (centres unmarked) | 20.8
62 | CCOC(=O)N1CCN(C(=O)CN(C)S(=O)(=O)c2ccc3c(c2)C(C)(C)C(=O)N3C)CC1 | 8.13
63 | COc1ccc(N(C(=O)CNC(=O)c2ccco2)C(C(=O)NC2CCCCC2)c2ccncc2)cc1 (centres unmarked) | 14.1
64 | C=CCNC(=S)Nc1ccc(Br)cc1F | 7.09
65 | O=Cc1cn(CC(O)Cn2cc(C=O)c3ccccc32)c2ccccc12 | -0.272
66 | CC1Cc2ccccc2N1C(=O)CN(C)CC(=O)Nc1ccc(F)cc1 (centres unmarked) | -37.5
67 | CC(C)OC(=O)c1cc2ccccc2oc1=O | 11.4
68 | CCOC(=O)c1sc(NC(=O)CNCc2ccccn2)c(C(=O)OCC)c1C | -3.45
69 | O=C(Cc1ccccc1[N+](=O)[O-])N1CCN(Cc2ccc3c(c2)OCO3)CC1 | -1.67

Row | SMILES | hERG current change (%, negative = inhibition) at 10uM [%]
70 | CCOc1ccccc1NS(=O)(=O)c1cc2c3c(c1)C(C)C(=O)N3CCC2 (centres unmarked) | 5.26
71 | CNC(=O)CN1C(=O)NC2(CCc3ccccc32)C1=O (centres unmarked) | 17.2
72 | O=C(CN1C(=O)CSc2ccc(S(=O)(=O)N3CCOCC3)cc21)NCc1cccnc1 | 6.4
73 | COc1ccc(OC)c(NC(=O)C(C)Oc2ccc(Br)cc2)c1 (centres unmarked) | 5.96
74 | Fc1ccc(N2CCN(Cc3ccc4c(c3)OCO4)CC2)cc1 | -51.3
75 | Cn1c(SCC(=O)c2ccccc2)nnc1-c1cccnc1 | -10.3
76 | CCOC(=O)c1ccc(NC(=O)CSCC(=O)OCC(=O)c2ccccc2)cc1 | -0.367
77 | CN(C)S(=O)(=O)c1cccc(NC(=O)Cc2ccsc2)c1 | -10.2
78 | COc1ccc(N(CC(=O)Nc2nccs2)S(=O)(=O)c2c(C)nn(C)c2C)cc1 | -14.2
79 | COC(=O)C(CC(=O)O)NCc1ccco1 (centres unmarked) | 9.66
80 | Clc1cccc(Cl)c1CN1CCN(c2ccccc2)CC1 | 11.8
81 | Cc1sc(/N=C/c2ccccc2O)c(C#N)c1C | 27.8
82 | O=C(CNC(=O)C1CCCCC1)Nc1ccccc1Cl | -4.43
83 | COC(=O)c1cc(C(=O)OC)n(Cc2ccc(F)cc2)n1 | -12.9
84 | CCOc1ccccc1NC(=O)NC1(C(=O)N2CCOCC2)CCCCC1 | 15.6
85 | CCc1ccc(NC(=O)c2cccc(NC3=NC4CS(=O)(=O)CC4S3)c2)cc1 (centres unmarked) | 18
86 | CSc1ccc(/C=N/NC(=O)c2ccc(C)c(C)c2)cc1 | -4.84
87 | CC[C@H]1CC2CN3CCc4c([nH]c5ccccc45)C(C(=O)OC)(C2)C13.Cl (some centres unmarked) | -2.97
88 | COc1cccc2cc(C(=O)N3CCN(C45CC6CC(CC(C6)C4)C5)CC3)c(=O)oc12 | 1.88
89 | O=C(NN1CCOCC1)c1cnn2c(C(F)F)cc(-c3ccccc3)nc12 | 0.323
